From PubChem BioAssay AID588795 (National Center for Advancing Translational Sciences (NCATS), 2011)
Where “and” joins values, the source holds several entries; their conditions need not be identical. Equal values may be shown once. Out of some 390,000 compounds screened, about 1,400 (0.36%) were called active. Inconclusive means that the source gave no clear call. Such entries were picked first, then a sample of the others. Calls follow the shape of the dose curve; as a rule, active = well fitted inhibition curve with a large enough effect; inconclusive = small, poorly fitted or top-dose-only effect; inactive = no such curve, though single readings can be large or run the other way. Potencies beside an inconclusive call are fits to weak or partial responses and may not hold up.

target: Flap endonuclease 1 (Homo sapiens) (UniProt P39748); experiment: qHTS Assay for the Inhibitors of Human Flap endonuclease 1 (FEN1).; also: nearly all actives have a fitted effect of over 65% in size; settings: Recombinant FEN1 flap cleavage, fluorescence, 15 min; series mostly up to 114 µM; activity change, negative = inhibition: at the top concentration
From the text: The major human flap endonuclease FEN1 is an efficient structure-specific enzyme that recognizes and cleaves a 5'-unannealed DNA flap. It belongs to the RAD2 family nucleases, which are involved in DNA metabolism and are highly conserved in prokaryotes and eukaryotes. FEN1 is a key enzyme in DNA replication, repair and maintenance of genomic stability. 5'-flap removal by FEN1 is critical for Okazaki fragment processing during lagging strand DNA synthesis, long-patch base excision repair (LP BER), and regulating or facilitating recombination events. […] Deletion of the yeast FEN1 gene, i.e. rad27, results in an increased frequency of short DNA (3-32 bp) repeats, micro- and mini-satellite formation, trinucleotide repeat expansion, spontaneous recombination events, and a severe growth defect in association with cell cycle arrest in late S/G2 phase. […] Cells from fen1-/- blastocysts show increased apoptotic cell death after ionizing radiation treatment, and chicken cells lacking the fen1 gene are hypersensitive to DNA alkylating agents, e.g. methylmethane sulfonate (MMS) and N-methyl-N'-nitro-N-nitrosoguanidine (MNNG), as well as hydrogen peroxide.
NIH Chemical Genomics Center [NCGC]
NIH Molecular Libraries Probe Centers Network [MLPCN]
Assay Submitter (PI): David Wilson, National Institute of Aging
Three uL of reagents (buffer in column 3 and 4 as negative control and 10 nM FEN1 in columns 1, 2, and 5-48) were dispensed into 1,536-well black solid-bottomed plate. Compounds (23 nL) were transferred via Kalypsys pin tool equipped with 1536-pin array (10 nL slotted pins, V&P Scientific, San Diego, CA). The plates were then incubated for 15 min at room temperature, and 1 uL substrate (50 nM final concentration) were added to start the reaction read twice at 0 min read and 15 min on ViewLux reader. Throughout the screen, reagent bottle and all liquid lines were chilled and made light-tight to minimize reagent degradation. All screening operations were performed on a fully integrated robotic system (Kalypsys, San Diego, CA) containing one RX-130 and two RX-90 anthropomorphic robotic arms (Staubli, Duncan, SC). Library plates were screened starting from the lowest and proceeding to the highest concentration, and a "double-dipping" step of the highest concentration was required to access higher concentrations of compounds. Vehicle-only plates, with DMSO being pin-transferred to the entire column 5-48 compound area, were inserted uniformly at the beginning and the end of each library in order to monitor for and record any shifts in the background, which can be affected by reagent dispensers or loss in enzyme activity overtime. Screening data was corrected, normalized, and concentration-effect relationships were derived by using publicly-available curve fitting algorithms developed in-house (http://ncgc.nih.gov/pub/openhts). A four parameter Hill equation was fitted to the concentration-response data by minimizing the residual error between the modeled and observed responses.
% is scaled to controls: 0 for no effect and ±100 for the full control effect; potency is read from the fitted curve at half-maximal effect; tags tell the direction and shape of the fitted curve.

Sequence of UniProt P39748 (P39748 whole entry, looked up, the tested form may be a part): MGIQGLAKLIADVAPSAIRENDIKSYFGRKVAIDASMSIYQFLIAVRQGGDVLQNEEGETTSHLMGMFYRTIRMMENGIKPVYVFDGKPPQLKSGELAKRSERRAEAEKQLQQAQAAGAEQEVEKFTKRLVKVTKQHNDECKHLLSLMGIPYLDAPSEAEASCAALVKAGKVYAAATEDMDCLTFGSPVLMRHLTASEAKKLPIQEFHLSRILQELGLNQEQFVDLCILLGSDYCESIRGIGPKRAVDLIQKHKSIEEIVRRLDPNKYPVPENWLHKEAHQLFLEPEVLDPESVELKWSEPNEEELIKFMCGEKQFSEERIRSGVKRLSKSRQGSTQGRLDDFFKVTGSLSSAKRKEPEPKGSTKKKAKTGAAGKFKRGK

Structure (SMILES) | Potency | activity change, negative = inhibition
COc1cc(/C=N/Nc2nc3ccccc3s2)ccc1O | inconclusive: 79.4 µM [inhibitor, partial curve, poor fit] | –
Cc1ccc(C)c(OCCCn2c(-c3ccc(Cl)cc3)nc3ccccc3c2=O)c1 | inconclusive: 31.6 µM [inhibitor, single point] | –
O=C(NN1C(=O)c2ccc3c4c(ccc(c24)C1=O)CC3)c1ccc(Br)cc1 | – | inactive: -7.79%
O=C(OCCC12CC3CC(CC(C3)C1)C2)c1ccc(NCc2cc(O)ccc2O)cc1 | inconclusive: 56.2 µM [inhibitor, partial curve] | –
N#C/C(=C\c1ccc(OCc2ccc(C(=O)O)cc2)cc1)C(=O)N1CCOCC1 | – | inactive: 17.3%
CCOc1ccc(CCN2C(=S)N([C@@H](CC(C)C)CN3CCCC3CN3C(=S)NC[C@@H]3CC(C)C)C[C@@H]2Cc2ccc(O)cc2)cc1 (stereo partly drawn) | inconclusive: 56.2 µM [inhibitor, partial curve, poor fit] | –
Cc1cc(Nc2cc(Cl)ccc2C)n2nc(Cc3ccccc3)nc2n1 | – | inactive: 13.8%
Cc1cc(C)c(S(=O)(=O)NCC(c2ccc(N(C)C)cc2)N2CCc3ccccc32)c(C)c1 (stereo not drawn) | – | inactive: -2.47%
CC(C)(C)n1nc(Cc2cccc3ccccc23)c2c(N)ncnc21 | inconclusive: 79.4 µM [inhibitor, partial curve, poor fit] | –
CCC(CC)C1C(C#N)=C(N)Oc2cc(C)oc(=O)c21 (stereo not drawn) | – | inactive: 7.03%
CCc1c(O)cc(=O)n(-c2ccccc2)c1-c1ccccc1 | inconclusive: 44.7 µM [inhibitor, partial curve, poor fit] | –
COc1cc(OC)cc(-c2c(-c3cccs3)c3cc(Br)ccc3n2C)c1 | inconclusive: 44.7 µM [inhibitor, partial curve, poor fit] | –
CCOc1cc(Br)cc(C(c2c(C(=O)O)[nH]c3ccccc23)c2c(C(=O)O)[nH]c3ccccc23)c1O | inconclusive: 79.4 µM [inhibitor, partial curve, poor fit] | –
CC1CN(C(=O)CCC(=O)NCc2cccs2)c2cc(Cl)ccc2O1 (stereo not drawn) | inconclusive: 35.5 µM [inhibitor, partial curve, poor fit] | –
CC(C)(C)OC(=O)N/N=C/c1cc(N=Nc2ccccc2)ccc1O | inconclusive: 89.1 µM [inhibitor, partial curve, poor fit] | –
CC1(C)CC[C@]2(C(=O)n3ccnc3)CC[C@]3(C)[C@H](C(=O)C=C4[C@@]5(C)C=C(C#N)C(=O)C(C)(C)[C@@H]5CC[C@]43C)[C@@H]2C1 | inconclusive: 89.1 µM [inhibitor, single point] | –
O=C(c1ccc2c3n(nc2c1)-c1ccccc1CO3)N1CCOCC1 | – | inactive: -2.51%
CCOC(=O)c1ccc(N2CCCCC2)c(NS(=O)(=O)c2ccc(C)cc2)c1 | inconclusive: 89.1 µM [inhibitor, partial curve, poor fit] | –
COC(=O)c1c(C)cc(O)c(C=O)c1O | inconclusive: 22.4 µM [inhibitor, partial curve, poor fit] | –

Structure (SMILES) | Potency | activity change, negative = inhibition
CCOc1ccccc1/C=N/NC(=O)Cc1csc(Nc2cccc(C(F)(F)F)c2)n1 | inconclusive: 44.7 µM [inhibitor, partial curve, poor fit] | –
CCCCC/C=C/C1=CC(=O)C[C@H](c2ccc(OC)cc2)C1 | inconclusive: 89.1 µM [inhibitor, partial curve, poor fit] | –
CCOc1ccc(NC(=O)C(C)Oc2ccccc2C(=O)Nc2ccc(C)c(Cl)c2)cc1 (stereo not drawn) | inconclusive: 79.4 µM [inhibitor, partial curve, poor fit] | –
Cc1ccc(CN2CCN(/N=C/c3ccc(O)c(O)c3)CC2)cc1 | inconclusive: 56.2 µM [inhibitor, partial curve, poor fit] | –
NC(=S)NNc1ccc(Cl)c(Cl)c1 | – | inactive: 8.5%
COc1ccc(/C=C/C(=O)Nc2ccc(Cl)c(Cl)c2)cc1OC | inconclusive: 35.5 µM [inhibitor, partial curve, poor fit] | –
COc1ccc2nc(C)cc(Nc3ccc(N4CCN(C)CC4)cc3)c2c1 | inconclusive: 17.8 µM [inhibitor, full curve, poor fit] | –
O=C1c2ccccc2NC(c2ccccc2O)N1Cc1ccco1 (stereo not drawn) | – | inactive: 11.8%
CNC(=O)C1CC(=O)N(CCc2ccc(OC)cc2)C(=Nc2ccc(OC)cc2)S1 (stereo not drawn) | inconclusive: 89.1 µM [inhibitor, partial curve, poor fit] | –
CCOc1cc(C2CC(=O)N3CN(C4CCCCC4)CSC3=C2C#N)ccc1O (stereo not drawn) | inconclusive: 2.24 µM [inhibitor, full curve, poor fit] and inconclusive: 5.01 µM [inhibitor, partial curve] | –
Cc1ccc2nc(SC(Cc3cc(Cl)ccc3Cl)C(=O)O)[nH]c2c1 (stereo not drawn) | – | inactive: -8.95%
O=C(NCc1cccc(C(F)(F)F)c1)C1CC(c2ccccc2F)=NO1 (stereo not drawn) | inconclusive: 89.1 µM [inhibitor, partial curve, poor fit] | –
Cc1cc(Cl)ccc1NC(=O)C1CCN(S(=O)(=O)c2ccc3[nH]c(=O)ccc3c2)CC1 | – | inactive: 2.67%
COc1ccc(C(=O)c2c3ccccc3[n+]([O-])n2Cc2ccc(C(N)=O)cc2)cc1 | inconclusive: 89.1 µM [inhibitor, partial curve, poor fit] | –
O=C(O)c1cccc(-n2cccc2/C=C/[N+](=O)[O-])c1 | inconclusive: 14.1 µM [inhibitor, full curve, poor fit] | –
CSCC[C@@H](C(=O)O)N1Cc2ccccc2C1=O | inconclusive: 11.2 µM [inhibitor, partial curve, poor fit] | –
COC(=O)C1=C(CSc2nc3c(cc2C#N)CN(C)CC3)OC(N)=C(C#N)C1c1ccccc1F (stereo not drawn) | inconclusive: 50.1 µM [inhibitor, partial curve, poor fit] | –
O=C(O)c1cc(N/N=C/c2ccc(N3CCOCC3)s2)ccc1Cl | inconclusive: 79.4 µM [inhibitor, partial curve] | –
CCOc1ccc(NC(=O)CSc2oc(-c3cccs3)nc2S(=O)(=O)c2ccc(Cl)cc2)cc1 | – | inactive: 4.04%
